We go through one molecule from patent publication US20240376194A1 (WUXI BIOLOGICS IRELAND, published 2024).

For orientation: EC50 means the midpoint of the concentration-response curve. A lower EC50 goes with greater potency.

Assay [1] concerns the target T1, full length human D3 on WT115-293F.hPro1.2E5 cells (human, UniProt Q9NYJ7 27-618).
T1 sequence (looked up): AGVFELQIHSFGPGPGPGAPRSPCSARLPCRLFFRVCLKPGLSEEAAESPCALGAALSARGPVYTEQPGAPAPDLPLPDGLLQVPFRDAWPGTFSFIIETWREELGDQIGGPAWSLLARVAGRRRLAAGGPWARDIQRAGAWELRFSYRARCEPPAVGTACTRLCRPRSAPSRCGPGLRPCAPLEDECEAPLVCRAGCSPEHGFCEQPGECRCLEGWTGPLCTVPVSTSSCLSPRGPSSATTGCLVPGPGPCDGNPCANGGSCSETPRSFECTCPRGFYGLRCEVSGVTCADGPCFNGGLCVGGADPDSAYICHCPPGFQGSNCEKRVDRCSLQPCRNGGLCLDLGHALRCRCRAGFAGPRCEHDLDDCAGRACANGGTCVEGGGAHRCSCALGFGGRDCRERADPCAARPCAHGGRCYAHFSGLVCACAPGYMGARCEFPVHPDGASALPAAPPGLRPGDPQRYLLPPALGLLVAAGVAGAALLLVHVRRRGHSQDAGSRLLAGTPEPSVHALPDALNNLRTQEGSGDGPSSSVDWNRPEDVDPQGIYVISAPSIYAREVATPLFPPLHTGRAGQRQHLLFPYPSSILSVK
As to the kind of experiment: cell-based or functional assay.

Assay [2] deals with T2, full length cynomolgus D3 on WT115-Flpin293.cPro1.pool cells (cynomolgus monkey).
T2 construct: whole, on cells; The paragraph on the cell pool prints none; also called cynomolgus monkey D3 expressing cell; Cyno D3
As to the kind of experiment: FACS on WT115-Flpin293.cPro1.pool cells. The procedure: WT115-Flpin293.cPro1.pool cells (1×10⁵ cells/well) were incubated with various concentrations of antibodies (4-fold serially diluted from 10 nM to 0.00061 nM) at 4° C. for 1 hour. After washing with 1×PBS/1% BSA, a secondary antibody, Alexa Fluor 647-labeled goat anti-human IgG (1:150, Jackson ImmunoResearch, 109-605-098), as added and incubated with cells at 4° C. in dark for 1 hour. Anti-human D3 antibodies WT115-BMIK1 and WT115-BMK2 were used as positive controls. Human IgG1 isotype antibody was used as a negative control. The cells were washed with 1×PBS/1% BSA and resuspended in 4% paraformaldehyde, and incubated with cells at 4° C. in dark for 0.5 hour. Then change the buffer with 1×PBS/1% BSA and filter the cells. MFI of the cells was measured by a flow cytometer and analyzed by FlowJo.

For assay [3], the target named is T3, WT115-MBP-mPro1.ECD.hFc (mouse, UniProt O88516 33-490).
T3 construct: extracellular domain; Made in Expi293 cells; also called mouse D3; mouse D3 protein; not shown: MBP tag at the N-terminus; human Fc tag at the C-terminus
T3 sequence (looked up): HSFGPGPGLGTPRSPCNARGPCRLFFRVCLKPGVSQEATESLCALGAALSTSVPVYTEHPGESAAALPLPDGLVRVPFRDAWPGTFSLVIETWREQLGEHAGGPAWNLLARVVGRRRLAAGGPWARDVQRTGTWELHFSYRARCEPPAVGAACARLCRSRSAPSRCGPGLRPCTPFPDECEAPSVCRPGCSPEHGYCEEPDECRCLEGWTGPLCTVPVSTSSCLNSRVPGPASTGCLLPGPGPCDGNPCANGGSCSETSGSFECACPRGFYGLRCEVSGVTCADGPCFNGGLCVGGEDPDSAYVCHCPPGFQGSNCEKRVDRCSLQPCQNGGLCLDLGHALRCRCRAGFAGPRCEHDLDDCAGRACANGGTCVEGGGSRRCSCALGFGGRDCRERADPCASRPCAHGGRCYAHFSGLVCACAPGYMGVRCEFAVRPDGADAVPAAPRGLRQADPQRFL
As to the kind of experiment: ELISA on immobilized WT115-MBP-mPro1.ECD.hFc (FIG. 4a). The protocol: Plates were pre-coated with 1 μg/mL, 100 μL per well of WT115-MBP-mPro1.ECD.hFc at 4° C. overnight. The antigen was diluted in coating buffer from stock solution. Next day, the plates were washed using 1×PBST for one time, and blocking was done by adding 200 μL of 1×PBS/2% BSA. Antibodies were serially diluted (5-fold serially diluted from 20 nM to 0.000256 nM) in blocking buffer. After 1-hour blocking, the plates were washed using 1×PBST for 3 times, and then the antibody were added to the plates and incubated at ambient temperature for 1 hour. […] WT114-BMK1-Biotin antibody was used as a negative control. Binding of antibodies to the immobilized mouse D3 was detected by HRP-labeled secondary antibody (Invitrogen, SNN1004), which was diluted in 1×PBS/2% BSA at a concentration of 1:30000. After incubation, the plates were washed using 1×PBST for 6 times. The color was developed by dispensing 100 μL of TMB substrate, and then reaction was stopped by adding 100 μL of 2M HCl. Absorbance was read at 450 nm and 540 nm using a microplate spectrophotometer. All samples were tested in duplicate.

B1: WT1156-P3R2-1C2-uIgG1 (Fc fusion)
chain: EVQLVESGGGLVQTGDSLRLSCAASGLTFSTATVGWFRQAPGKERDLIAAIPAYYSTYYASSVKGRFTISRDNAKNTVYLQMNSLKPEDTGVYYCAADDTPSPSRSPFYKHRGQGTQVTVSS[gap - human IgG1 Fc]
notes: It speaks of a dimer only in embodiments; Biotinylated in the mouse D3 ELISA
On to B1, for which the “Internalization EC50” value in assay [1] was 0.65 nM. The EC50 was 0.14 nM in assay [2] and 0.0092 nM in assay [3].
